In the supplement of paper PMC4166925:
± gives the standard deviation of the averaged measurements. In all, about 33,000 sequences were measured (“E-score (dimensionless, -0.5 to 0.5)”: median about -0.049, highest 2% from about 0.37 on). The list shows a part of the results.

Test system: T1, PmTbr T-box DNA-binding domain (GST fusion)
T1 sequence: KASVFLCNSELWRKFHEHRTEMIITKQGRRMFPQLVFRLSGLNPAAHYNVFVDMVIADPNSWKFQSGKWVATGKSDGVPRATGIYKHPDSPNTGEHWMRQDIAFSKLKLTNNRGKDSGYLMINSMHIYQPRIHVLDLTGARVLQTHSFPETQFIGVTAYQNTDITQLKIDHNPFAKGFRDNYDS
Test: PBM E-score of 8-mer (E-score (dimensionless, -0.5 to 0.5)); Tbr is Tbrain of the sea star Patiria miniata (Pm) or the sea urchin Strongylocentrotus purpuratus (Sp); higher = stronger binding preference; most listed sequences are background and not binding sites
Details: the construct has about 5 more residues each side
In short: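 Each ungapped 8-mer received an enrichment E-score from the Universal PBM Analysis Suite, averaged over duplicate arrays. The proteins were Tbr T-box DNA-binding domains, covering the whole T-box plus about five flanking residues, fused to GST and expressed in BL21 E. coli at 20 °C before glutathione affinity purification. Universal Agilent oligonucleotide arrays were made double-stranded by primer extension and incubated with 200 nM protein in PBS (pH 7.5). The arrays were then scanned and quantified, and every 8-mer was scored from probe intensities.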

Sequence	PBM E-score of 8-mer
ATCACTAC	0.0608 ± 0.021
TGTCTTAA	0.00168 ± 0.0044
ATTTGCAA	-0.0355 ± 0.0088
CTGGTCTC	-0.141 ± 0.056
GAACTGAC	-0.128 ± 0.048
ACCCATTG	-0.141 ± 0.018
ACGTTGCC	0.152 ± 0.021
GCAACCAC	-0.0105 ± 0.021
AGTTGGAG	-0.108 ± 0.016
CCACTAAA	-0.0993 ± 0.0027
ACAACGCA	0.105 ± 0.03
AATACCCC	-0.321 ± 0.036
CGCCTCAG	0.344 ± 0.036
ATTTGATC	-0.303 ± 0.072
CCTAGAAC	-0.165 ± 0.042
CCTATCTA	-0.209 ± 0.066
ATGGAATA	-0.0607 ± 0.02
AAAACCAG	0.076 ± 0.0043
ATCCGTCG	0.0371 ± 0.005
TAATCCCA	-0.287 ± 0.0032
GATTGGAC	-0.0692 ± 0.062
ACGGTGAT	0.202 ± 0.0041

Sequence	PBM E-score of 8-mer
AGCAACAA	0.0934 ± 0.021
CAACGCGC	0.147 ± 0.046
AATATCTC	0.0397 ± 0.066
ACTCATTA	-0.0257 ± 0.047
ACAGAGCA	-0.253 ± 0.03
GTCCTCGA	-0.186 ± 0.012
ATATTGCG	0.103 ± 0.039
ATTGGAAA	-0.27 ± 0.074
AGTAAAAT	-0.191 ± 0.049
TATCAATA	-0.108 ± 0.025
AACCACAC	0.289 ± 0.0025
GTACCTTA	-0.0986 ± 0.099
CAATGCAA	-0.155 ± 0.044
GCCTAACA	0.154 ± 0.024
CTGACAGA	0.0579 ± 0.029
CGGAGACC	-0.203 ± 0.022
CTATTAAG	-0.116 ± 0.03
TCACGGAA	0.0813 ± 0.0081
AGCCGCCA	0.0884 ± 0.0055
CGGGCTCA	-0.0674 ± 0.017
AAGCATCC	-0.129 ± 0.037
GTGTTACA	0.386 ± 0.013

Sequence	PBM E-score of 8-mer
GACGACAA	0.131 ± 0.014
AAACGCTA	-0.041 ± 0.035
AGGCGATA	0.262 ± 0.0083
GCCGTAGC	-0.268 ± 0.08
CGTCAGAG	-0.00987 ± 0.14
ATGTCCCG	-0.244 ± 0.035
GGGCCTAC	-0.254 ± 0.029
CACTGGCG	0.158 ± 0.072
CCTACAAA	-0.14 ± 0.03
GCACCACC	0.192 ± 0.11
ACCCGAGA	-0.101 ± 0.081
AGACCCGG	-0.263 ± 0.034
CGGTGAGA	0.236 ± 0.0071
ACTGTGCT	0.118 ± 0.036
CAATACAC	0.134 ± 0.018
AAGCCGAA	-0.207 ± 0.039
ACTGACTA	-0.169 ± 0.016
GTTTAATA	-0.127 ± 0.015
ACCTCTAT	0.239 ± 0.081
CCGTACCC	-0.342 ± 0.076
CGCCGCCA	0.0118 ± 0.12
AAAACCTA	-0.209 ± 0.086

Sequence	PBM E-score of 8-mer
AAGTAAAA	-0.207 ± 0.0068
AATCCAAG	-0.178 ± 0.0028
TCCGGACA	-0.007 ± 0.055
TACCTATA	-0.137 ± 0.041
GCTCGTAA	-0.0733 ± 0.036
GCCACTAA	0.153 ± 0.019
ACTCGGCA	0.0801 ± 0.035
GCACACAA	-0.08 ± 0.061
AAGTGTCA	0.4726 ± 0.0035
CAAATGTG	0.296 ± 0.022
AGGGAGAT	-0.0741 ± 0.034
AAGTGAAC	-0.0437 ± 0.14
GTGCTCCA	-0.0568 ± 0.025
ACAAAAGC	0.00787 ± 0.035
ATGATACC	-0.113 ± 0.018
AACGCTGC	0.128 ± 0.017
GTAGGTGA	0.397 ± 0.02
CGTAAGCC	-0.222 ± 0.063
TCAGATGA	-0.136 ± 0.035
AGTAATAG	-0.00931 ± 0.014
AGGGGCCA	-0.1394 ± 0.00072
CGATGGCC	-0.102 ± 0.053

Sequence	PBM E-score of 8-mer
CTCGACTA	-0.163 ± 0.029
CAGGGCAC	-0.0605 ± 0.021
GCAGTACC	0.0599 ± 0.05
ATCTGTAG	-0.14 ± 0.043
TACACGGA	0.088 ± 0.037
GCCACAGC	-0.03973 ± 5.7e-05
AAGCGACG	0.137 ± 0.019
AACTCAAA	-0.0783 ± 0.034
TATCTAAA	-0.232 ± 0.1
AAAAAGCC	-0.211 ± 0.053
AGATTGTA	-0.0747 ± 0.059
ATGGGGAG	-0.19 ± 0.02
GGTTTCGA	-0.114 ± 0.029
CCGGTAAG	-0.135 ± 0.01
GCGCTCTA	0.102 ± 0.063
TAACGCGA	0.318 ± 0.039
GATCGCGA	0.303 ± 0.057
TGACGAAA	0.186 ± 0.08
CTGTACAA	-0.103 ± 0.0019
TACGGAGA	-0.103 ± 0.036
TAGAAGAA	-0.381 ± 0.0066
CGCCATAC	0.031 ± 0.022
